Assay results: the RNAGym collection of RNA variant scans (doi:10.7554/elife.90254)
Read counts are not given, so values of variants with three or more changes are uncertain.

B1: LINE1-mini (parent)
chain: GGCAGAGCUCAACACAGCGUGGCAAAGUGGCUGUGGCUAGACUGCC

Variants of: B1
Assay: self-cleavage, relative activity (ratio to wild type); higher = more cleavage; in vitro, sequencing; the parent is a self-cleaving ribozyme

| Variant | self-cleavage |
| --- | --- |
| C3G G17U C37A U38C G40C | 0.16 |
| A14G C23U C37G C46A | 0.01 |
| G5A A14C U43A | 0.12 |
| G1C G2A U9A C10U G17U G30C | 0.02 |
| A39G A41C G44U | 0.05 |
| G2C A4G C10A G17A A25G | 0.01 |
| C31A G33A C37G | 0.02 |
| C8G C18G G21A G35A C42U | 0.04 |
| C15U G21U A24C | 1.12 |
| G1U U9C A16C C23G A25G | 0 |
| A4G A12U U28G G35A | 0.28 |
| A16G G21U A24C G44U | 0.04 |
| C15A C18A G19A | 0.03 |
| G5U G22A A39U | 0 |
| A11G C15U C23U U28G U43A | 0 |
| C3A C18G G33A C42U | 0.05 |
| G1C C23U A26U U32C U38A | 0.02 |
| G1C A11G G27A | 0.01 |
| G2C A26G G33C G36U C46A | 0.04 |
| G1A C3A U20G G40U | 1.12 |
| C8A G30A G40U C42G | 0.2 |

| Variant | self-cleavage |
| --- | --- |
| C15G A26G G33U C46U | 0.06 |
| C18G C23U G30A | 0.62 |
| G7U A25U A26C | 0.07 |
| G5U U20A G30A G44C | 0.07 |
| C10U A14U A26C U32C G33U G35A | 0.04 |
| C10G A16G G35C | 0.02 |
| C8U G29U G35C C37G | 0.41 |
| G2A A16G G22U C23A G29U | 0.14 |
| G7C G17A U28G G33A | 0.03 |
| G2A A24U G40U A41C G44U | 0.16 |
| C8U C18A C45A | 0.29 |
| G19U C23A G40C A41U C45G | 0.02 |
| G17U C18A A25U G27A C42A G44A | 0.21 |
| G1U G36U C37A G40U | 0.01 |
| C8A A11G C15G G19A G21U | 0.01 |
| A12G C13A C23A | 0.38 |
| G2C A11U G27A U34A | 0.05 |
| C31A A41C U43A | 0.02 |
| C3U A14G G36U | 0.28 |
| A6C A12G C18A U20A G21A A25C | 0.07 |
| C15G C18A G27A G29A | 0.02 |

| Variant | self-cleavage |
| --- | --- |
| C10G G29A C42U | 0.06 |
| G5C C13G C15A A26C | 0.01 |
| G2U G27A C37U U43C | 0.03 |
| A4U C10A U34C | 0.06 |
| G1U A11G G29A G35A G36A | 0.02 |
| A24C C31A C45A | 0.23 |
| G1C G30U G36A | 0.05 |
| C18A C37U G44U | 0.05 |
| G5A A12G G17U C18G G21A A41G | 0.02 |
| C10U C15U A26G U38C C45U | 0.06 |
| A6C G7U C10U G22A | 0.04 |
| C15U G21C G27A C37U C46A | 0.07 |
| G7U G21U G35A G44C | 0 |
| G2A G7A G21U | 0.34 |
| G19A G33A C46U | 0.04 |
| A6G G22U G40C A41U | 0.13 |
| G1U U32C C37U | 0 |
| A6U G19C A26G G40U | 0.04 |
| C3A G35U C46A | 0.17 |
| G7C C18U G35U G36U C42U | 0.04 |
| G1U G2C C8A C13A G17U G30A C37A | 0.01 |

| Variant | self-cleavage |
| --- | --- |
| A25G G33A G40A | 0.04 |
| C23U A41U C42G C46U | 0.01 |
| G1A A14C G33C | 0.02 |
| G1C C3U C8U G19A | 0.42 |
| A12U C18U A25G A41G | 0.05 |
| C18U C45G C46A | 0.33 |
| G1U C10A A11U | 0.03 |
| G1C U32A C37G | 0.02 |
| C3U C8U C46G | 0.08 |
| A14G A16U G21A G22U | 0.01 |
| A14G C23A G29U | 0.27 |
| G5C A14G A16U G22A A25G G44U | 0.03 |
| U9A C15A U38G | 0 |
| C18U U32A G36A A41C C45A | 0.01 |
| G7U A12C C15G A41G | 0.01 |
| G1U G17C A25C | 0.08 |
| U32G U43A C46G | 0.05 |
| C8U C18G U43A | 0.07 |
| A4C C10A G19U G30C | 0.02 |
| G5C C8A U32G A39G | 0.32 |
| C3A G17A C18A | 0.25 |
